# Data: publication PMC4336329 (PLoS ONE, 2015)
# In all, about 310,000 compounds went through this assay and about 2,200 (0.71%) showed an effect of 50% or more. The effect is printed as a negative number. Some of the results follow. Where a SMILES comes first, the peptide text is derived from it. The star is where a group is joined. Cbz = O=C(OCc1ccccc1)*
# Target: human ether-à-go-go-related gene (hERG) potassium channel (human, UniProt Q12809)
# Experiment: primary screen, population patch clamp on CHO cells stably expressing hERG
# human ether-à-go-go-related gene (hERG) potassium channel, sequence (Q12809 whole entry, looked up): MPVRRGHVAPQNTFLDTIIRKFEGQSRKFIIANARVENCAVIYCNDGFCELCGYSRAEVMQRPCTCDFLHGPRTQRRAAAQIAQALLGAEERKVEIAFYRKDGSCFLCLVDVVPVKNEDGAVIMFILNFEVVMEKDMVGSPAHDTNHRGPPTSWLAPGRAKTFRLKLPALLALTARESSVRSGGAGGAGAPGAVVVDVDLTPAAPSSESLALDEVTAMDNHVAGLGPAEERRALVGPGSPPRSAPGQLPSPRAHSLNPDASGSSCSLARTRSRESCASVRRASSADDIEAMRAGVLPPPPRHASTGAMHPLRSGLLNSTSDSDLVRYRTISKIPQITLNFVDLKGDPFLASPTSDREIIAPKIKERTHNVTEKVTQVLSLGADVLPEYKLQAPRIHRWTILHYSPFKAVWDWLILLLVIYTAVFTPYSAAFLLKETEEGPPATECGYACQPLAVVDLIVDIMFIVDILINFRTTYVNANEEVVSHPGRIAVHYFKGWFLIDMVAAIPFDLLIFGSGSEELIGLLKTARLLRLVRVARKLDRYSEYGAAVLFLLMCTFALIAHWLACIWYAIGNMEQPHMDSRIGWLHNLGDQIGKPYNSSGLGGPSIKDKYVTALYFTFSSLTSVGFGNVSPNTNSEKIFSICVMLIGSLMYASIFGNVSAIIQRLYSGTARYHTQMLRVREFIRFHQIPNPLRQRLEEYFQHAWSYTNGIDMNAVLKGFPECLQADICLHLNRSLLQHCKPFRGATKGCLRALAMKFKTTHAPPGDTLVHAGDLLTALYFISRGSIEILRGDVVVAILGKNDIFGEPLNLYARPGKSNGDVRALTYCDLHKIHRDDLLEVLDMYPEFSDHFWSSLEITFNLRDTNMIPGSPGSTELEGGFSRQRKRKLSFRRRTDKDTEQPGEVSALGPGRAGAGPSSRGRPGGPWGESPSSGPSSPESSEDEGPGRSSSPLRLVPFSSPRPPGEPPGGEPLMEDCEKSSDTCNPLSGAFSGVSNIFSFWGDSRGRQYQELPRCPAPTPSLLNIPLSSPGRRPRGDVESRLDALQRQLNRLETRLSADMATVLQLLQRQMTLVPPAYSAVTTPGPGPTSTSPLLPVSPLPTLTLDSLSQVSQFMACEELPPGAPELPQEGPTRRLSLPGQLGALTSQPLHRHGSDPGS
row,SMILES,"hERG current change (%, negative = inhibition) at 1uM [%]"
1,COc1ccc(NC(=O)CSc2nc3sc(C)cc3c(=O)n2C)c(OC)c1,4.2
2,Cc1cc2cc(CCNS(C)(=O)=O)c(=O)[nH]c2cc1C,11.5
3,COc1ccc(CCNC(=O)c2cc(S(=O)(=O)N(C)c3ccccc3)ccc2Cl)cc1,2.07
4,Cc1cc2c(n1-c1ccc(C(=O)O)cc1)CCCCC2,6.11
5,O=C(Nc1nnc(C2CC2)o1)c1ccc(S(=O)(=O)N2CCCc3ccccc32)cc1,1.64
6,CCOC(=O)c1c(NC(=O)C2CCCO2)sc(C(=O)OC(C)(C)C)c1C (centres unmarked),11.6
7,CCOc1cc2c(cc1OCC)CN(CC(=O)Nc1ccccc1C(=O)NC1CC1)CC2,-8.52
8,CCOC(=O)N1CCN(S(=O)(=O)c2ccc(NC(C)=O)cc2)CC1,17.8
9,CC1(C)CC(=O)c2cnc3c(C#N)cnn3c2C1,8.53
10,Cn1c(CCNC(=O)c2ccco2)nc2cc(NS(=O)(=O)c3ccc(Cl)cc3)ccc21,-15.2
11,Cc1cc(C)c(NC(=O)c2cccs2)c(C)c1NC(=O)c1cccs1,10.9
12,C=CCNC(=O)NC(=O)COC(=O)/C(C#N)=C/c1cc(C)n(CCC(C)C)c1C,6.4
13,Cn1c(SCC(=O)O)nnc1C1CCCCC1,7.6
14,COC(=O)CSc1nnc(Cc2cc(=O)[nH]c(=O)[nH]2)n1-c1cccc(OC)c1,8.36
15,O=Cc1ccc(OCC(=O)N2CCOCC2)cc1,14
16,COc1cc(/C(C)=N/NC(=O)c2nnn(-c3nonc3N)c2-c2cccs2)ccc1O,-2.99
17,CCOc1ccccc1OCCCC(=O)ON=C(N)c1ccccc1,12.3
18,Cc1ccc2c(c1)CCCN2C(=O)c1cc2ccccc2oc1=O,-3.54
19,O=C(CSc1nccn1-c1ccccc1)c1ccc(Br)cc1,5.49
20,Cc1cc2oc3c(c(=O)c2cc1C)C(c1ccc(C(C)C)cc1)N(CCCN1CCOCC1)C3=O (centres unmarked),13
21,[O-]/C(=C(\C(=S)Nc1cccc2ccccc12)[n+]1ccccc1)c1ccc(Cl)s1,9.78
22,Cc1ccc(C(=O)N/N=C/c2ccc(-c3cccc(C(F)(F)F)c3)o2)cn1,8.06

row,SMILES,"hERG current change (%, negative = inhibition) at 1uM [%]"
1,CC(OC(=O)CNC(=O)c1cccc(F)c1)C(=O)NC1CCCCC1C (centres unmarked),10.6
2,CN(C)c1ccc(CNC(=O)CCS(=O)(=O)c2ccc3c(c2)n(C)c(=O)c(=O)n3C)cc1,9.05
3,COc1ccc(C2/C(=C(/O)c3ccc(C)cc3)C(=O)C(=O)N2c2ccccn2)cc1 (centres unmarked),14.7
4,Cc1c(NC(=O)COc2ncnc3c(Cl)cc(Cl)cc23)c(=O)n(-c2ccccc2)n1C,7.9
5,O=C(NCc1ccc2c(c1)OCO2)NC1CCCCC1,12.7
6,COc1cccc(C(=O)Nc2nc(-c3ccncc3)cs2)c1,-5.93
7,CCc1ccc(N2CC(C(=O)N/N=C/c3ccccc3)CC2=O)cc1 (centres unmarked),7.08
8,Cn1ccnc1SCC(=O)Nc1ccc2c(c1)OC(F)(F)O2,11.7
9,CCc1ccccc1N/C(=N\S(=O)(=O)c1ccccc1)C(F)(F)F,3.34
10,COc1ccccc1N1CCN(S(=O)(=O)CCNC(=O)c2cccc(F)c2)CC1,4.86
11,Cn1cccc1/C=C(/C#N)C(N)=S,2.12
12,Cl.Oc1ccc2c3c1O[C@H]1c4[nH]c5ccccc5c4C[C@@]4(O)[C@@H](C2)N(CC2CC2)CC[C@]314,-29.7
13,Cc1cc(NC(=O)CCCC(=O)NCc2ccccc2)no1,10.8
14,CC(C)CC(C(=O)NC1CCCC1)N(Cc1ccc2c(c1)OCO2)C(=O)c1snc(C(N)=O)c1N (centres unmarked),9.2
15,Clc1ccccc1CN1CCN(c2cccc3[nH]ccc23)CC1,9.14
16,C=CCn1c(CC(=O)Nc2cccc(OC)c2)nnc1SCC(=O)NC1CCCCC1,8.17
17,CC1(C)Cc2nc(-c3ccccc3)n3cnnc3c2CO1,4.47
18,Cl.Nc1nc(N2CCN(C/C=C/c3ccccc3)CC2)nc2ccccc12,-28.3
19,CC(=O)c1ccc(N2CCN(C(=S)Nc3ccccc3C(F)(F)F)CC2)cc1,13.7
20,COc1cc(OC)cc(C(=O)OCC(=O)N2CCCC2)c1,12.3
21,Cc1ccc(-c2nc3ccccc3c(=O)n2-c2cccc(O)c2)cc1,15.9
22,Cc1cnc(NC(=O)CCNC(=O)c2ccccc2Cl)s1,13.6

row,SMILES,"hERG current change (%, negative = inhibition) at 1uM [%]"
1,COc1cc(CCC(=O)O)on1,13.3
2,O=C(CN1CCOCC1)N(c1ccccc1)c1ccc2ccccc2c1,-1.4
3,CC1(c2ccccc2)NC(=O)N(CC#N)C1=O (centres unmarked),4.85
4,CC(NC(=O)Cn1c(=O)[nH]c2ccsc2c1=O)C12CC3CC(CC(C3)C1)C2 (centres unmarked),7.3
5,COC(=O)c1ccc(-c2nc3ccccc3[nH]2)cc1,10.5
6,CCN1CCN(C(=O)CN(Cc2ccccc2)S(C)(=O)=O)CC1,2.89
7,Nc1nnnn1CC(=O)N/N=C/c1cccs1,13.4
8,O=C(c1ccc(F)cc1)N(Cc1ccccc1)C1CCS(=O)(=O)C1 (centres unmarked),10.9
9,Cn1c(N)c(C(=O)COC(=O)C2(c3ccccc3F)CCCC2)c(=O)n(C)c1=O,0.464
10,O=C(COC(=O)CN1C(=O)c2cccc([N+](=O)[O-])c2C1=O)NC1CCS(=O)(=O)C1 (centres unmarked),-1.98
11,CCN(CC)C(=O)c1ccc(CS(=O)(=O)c2ccc(Br)cc2)cc1,12
12,Cc1ccc(NC(=O)CCNS(=O)(=O)c2ccc(Br)cc2)cc1S(=O)(=O)N1CCOCC1,12.6
13,COc1ccc(CNC(=O)C2(CC3CC(c4ccccc4)=NO3)CCN(C(=O)CCCCCBr)CC2)cc1 (centres unmarked),-60.3
14,C=CCN(CC=C)C(=S)NC(=O)c1ccc(-c2ccccc2)cc1,8.76
15,CCC(C)C(NC(=O)C(C)NC(=O)CNC(=O)CNC(=O)OCc1ccccc1)C(=O)OC (centres unmarked) (Cbz-GGAI-OMe; configuration not given here),16.5
16,CCN=C(NCC)SC1CC(=O)N(c2cccc(OC)c2)C1=O (centres unmarked),9.19
17,Cc1cccc(-n2nc3c(c2NC(=O)C(C)C)CSC3)c1,-0.316
18,COc1cc(NC(=O)C2=C(N3CCOCC3)/C(=C\c3ccc(Br)cc3)CC2)cc(OC)c1OC,-1.63
19,O=C(c1cccc(N2C(=O)C3CC=CCC3C2=O)c1)N1CCN(c2ccccc2)CC1 (centres unmarked),5.13
20,CN(C)CCN(Cc1cc2cc3c(cc2[nH]c1=O)OCO3)C(=S)NCC1CCCO1 (centres unmarked),9.5
21,Cc1cccn2c(=O)c3cc(C(=O)NC(C)c4ccccc4)c(=N)n(CCCn4ccnc4)c3nc12 (centres unmarked),-10.8
22,Cc1ccc(CNC(=O)CCC2CCCN(C(=O)c3ccc4c(c3)OCO4)C2)o1 (centres unmarked),-1.7

row,SMILES,"hERG current change (%, negative = inhibition) at 1uM [%]"
1,COc1ccccc1CN1CC(C(=O)N2CCN(c3ccc(F)cc3)CC2)CC1=O (centres unmarked),-28.2
2,O=C(Cc1cccc(NC(=O)C2CCN(C(=O)c3ccccc3)CC2)c1)Nc1cccc(C(=O)N2CCCC2)c1,13
3,CC(Oc1ccc(Cl)cc1)C(=O)Nc1ncccn1 (centres unmarked),-4.09
4,O=C(/C=C/c1cccs1)N1CCc2ccccc21,12.1
5,COc1cccc2cc(C(=O)N3CCN(c4ncccn4)CC3)c(=O)oc12,1.55
6,Cc1cccc2cc(C(c3nnnn3CC3CCCO3)N3CCOCC3)c(=O)[nH]c12 (centres unmarked),0.926
7,CC(C)CNS(=O)(=O)c1ccc(CCC(=O)N2CCN(c3ccccc3)CC2)cc1,-61.5
8,COc1ccc(N2CCN(CCCNC(=O)CCCn3c(=O)[nH]c4ccsc4c3=O)CC2)cc1,4.24
9,O=C(NCCc1cccc(C(F)(F)F)c1)C1CCC(=O)N(CCc2cccc(F)c2)C1 (centres unmarked),-30.8
10,O=C(NN1C(=O)C2C(C1=O)C1C=CC2C12CC2)c1ccc(Cl)cc1 (centres unmarked),-0.197
11,COc1cc(C(O)CO)ccc1OS(=O)(=O)[O-].[K+] (centres unmarked),10.4
12,CC(C)c1ccc(N(C(=O)c2csnn2)C(C(=O)NC2CCCC2)c2cccnc2)cc1 (centres unmarked),2.37
13,CCn1cc(/C=C/C(=O)Nc2c(C)nn(Cc3ccccc3C)c2C)cn1,15.5
14,O=C(O)c1ccc(Nc2ccc(F)c(F)c2)c([N+](=O)[O-])c1,9.1
15,COC(=O)c1cccc(NS(C)(=O)=O)c1,13.4
16,COc1cccc(N(CC(=O)NCc2ccccc2)C(=O)CCC(=O)Nc2nccs2)c1,13.1
17,O=C(C(=O)N1CCN(c2ccc(F)cc2)CC1)N1CCCCC1,0.182
18,COc1ccc(Cl)cc1NC(=O)CN1CCN(C(=O)N2CCOCC2)CC1,-10.4
19,C=C(C)Cn1c(-c2ccc(OC)cc2)nc2ccccc21,-3.5
20,Cc1ccc(S(=O)(=O)N2[C@@H](c3ccccc3F)C(C(=O)O)=CC[C@H]2c2ccc3c(c2)OCO3)cc1,19.2
